From patent US6783966B1 (priority 2000, dated 2004)

Target: T1, α1,4 Gal-T (Homo sapiens, UniProt Q9NPC4)
T1 sequence (Q9NPC4 1-353): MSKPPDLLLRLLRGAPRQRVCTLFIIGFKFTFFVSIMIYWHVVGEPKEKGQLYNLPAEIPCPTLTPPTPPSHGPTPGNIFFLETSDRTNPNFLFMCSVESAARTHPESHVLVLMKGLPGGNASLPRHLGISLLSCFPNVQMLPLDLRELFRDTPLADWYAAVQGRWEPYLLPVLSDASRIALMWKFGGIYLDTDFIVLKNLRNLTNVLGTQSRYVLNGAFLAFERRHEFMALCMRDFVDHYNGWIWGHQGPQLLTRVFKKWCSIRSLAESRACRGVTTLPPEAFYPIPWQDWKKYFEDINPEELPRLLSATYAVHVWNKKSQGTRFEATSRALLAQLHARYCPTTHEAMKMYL
Assay: Enzyme assay of α1,4 Gal-T in membrane fraction of transfected L cells
Details: potential acceptors, FIG. 4B
Experimental: Membrane fractions were prepared as described(ref.19) from L cells transfected with the gene for α1,4 Gal-T as obtained in Example 1. The enzyme activity of α1,4 Gal-T in the membrane fraction was measured as descibed previously(ref.4). The reaction mixture for the assay contained the following in a volume of 50 μl:50 mM sodium cacodylate-HCl (pH 6.0), 10 mM MgCl2, 5 mM galactonolactone (Sigma), 0.3% Triton X-100 (Sigma), 0.4 mM (LacCer), 2.9 mM phosphatidylglycerol (Sigma), 0.2 mM UDP-Gal (Sigma), UDP-[^14C] Gal (2.5×10^5 dpm) (NEN), and membrane fraction containing 50 μg protein. The protein concentration was determined by Lowry's methods(ref.20). The products was isolated by a C18 Sep-Pak cartridge (Waters, Milford, Mass.) and analyzed by thin layer chromatography (TLC) and autoradiography using a Bio-Imaging Analyzer BAS2000 (Fuji Film, Tokyo).
Enzyme activity toward other potential acceptors was also examined (FIG. 4B).

Substance: paragloboside [paragloboside(PG)]
- significant levels of [14C] galactose incorporation (acceptor): not responsible for the synthesis of P1 antigen
